Data reported in PubChem BioAssay AID488969 (Vanderbilt High Throughput Screening Facility, 2010).
Whole data set: some 110,000 compounds, median “z-score” near -0.1, cut for the highest 2% near 2. The list shows a part of the results. Calls of active or inactive are those of the source.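 How the source made its calls: active means z-score in the third read window above 3 or below -3; inactive means the rest.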

Biological target: Metabotropic glutamate receptor 8 (Rattus norvegicus) (UniProt P70579)
UniProt P70579, sequence (P70579 whole entry, looked up): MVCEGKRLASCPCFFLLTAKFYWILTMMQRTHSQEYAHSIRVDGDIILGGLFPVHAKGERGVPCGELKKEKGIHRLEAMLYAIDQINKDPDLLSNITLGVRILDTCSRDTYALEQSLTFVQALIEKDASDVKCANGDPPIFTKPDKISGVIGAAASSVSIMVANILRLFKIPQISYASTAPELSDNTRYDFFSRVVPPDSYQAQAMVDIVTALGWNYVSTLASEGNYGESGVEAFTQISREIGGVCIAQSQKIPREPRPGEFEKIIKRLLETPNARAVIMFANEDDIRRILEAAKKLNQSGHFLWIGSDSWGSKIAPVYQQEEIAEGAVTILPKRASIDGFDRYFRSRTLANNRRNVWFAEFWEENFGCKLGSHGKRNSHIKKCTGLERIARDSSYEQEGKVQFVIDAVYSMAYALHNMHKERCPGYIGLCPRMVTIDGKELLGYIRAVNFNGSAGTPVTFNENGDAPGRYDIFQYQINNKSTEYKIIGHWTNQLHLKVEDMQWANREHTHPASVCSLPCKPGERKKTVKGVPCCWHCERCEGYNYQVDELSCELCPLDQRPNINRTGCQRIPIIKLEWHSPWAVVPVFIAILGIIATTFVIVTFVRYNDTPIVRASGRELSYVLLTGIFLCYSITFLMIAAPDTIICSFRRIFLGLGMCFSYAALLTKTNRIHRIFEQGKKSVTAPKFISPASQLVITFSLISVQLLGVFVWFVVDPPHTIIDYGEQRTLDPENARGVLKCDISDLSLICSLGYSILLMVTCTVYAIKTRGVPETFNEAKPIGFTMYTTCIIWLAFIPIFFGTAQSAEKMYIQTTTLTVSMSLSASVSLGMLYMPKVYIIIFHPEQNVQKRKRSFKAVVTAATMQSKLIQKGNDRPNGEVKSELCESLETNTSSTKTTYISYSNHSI
Assay: rat mGluR8 modulators via GIRK flux, primary screen, cell-based, thallium flux, HTS (AID 488969)
Settings: HEK293 rat mGluR8, GIRK (G protein-gated inwardly rectifying potassium channel) thallium flux, FluoZin2; at 10 µM; stronger effect = higher value; submaximal glutamate (EC20) added with thallium

Row | SMILES | z-score
1 | Cc1ccc(C)n1-n1c(C)nc2sc(-c3ccccc3)cc2c1=O | -0.0272
2 | Cc1nn(C)c(C)c1/C=N/N=C1\CCC2C3CCc4cc(O)ccc4C3CCC12C (centres undefined) | -0.0291
3 | COc1ccc(N=C2SC(CC(=O)Nc3cccc(Cl)c3)C(=O)N2Cc2ccco2)cc1 (centres undefined) | -0.175
4 | COC(=O)c1ccc(COC(=O)CNC(=O)c2ccc(-c3ccccc3)cc2)cc1 | -0.148
5 | CCC(=O)OCCCCCCOc1ccc(C(=O)O)cc1 | 0.0999
6 | CCOC(=O)C1CCCCN1Cc1cc(Cl)ccc1O (centres undefined) | 0.343
7 | O=C(Nc1nc2ccccc2s1)C1CC(=O)N(c2ccccc2)C1 (centres undefined) | -0.411
8 | Cn1c(SCC(=O)NC(=O)NCc2ccco2)nnc1C(F)(F)F | -0.0751
9 | Cc1cc(C)nc(SCc2ccc(C(=O)NN=C3C4CC5CC(C4)CC3C5)cc2)n1 | -0.0309
10 | CCOC(=O)N1CCN(C(=O)c2cnc3n(c2=O)CCS3)CC1 | -0.303
11 | CC12CCC(C(=O)N(CC(O)CN3CCCCC3)C1=O)C2(C)C (centres undefined) | 0.169
12 | CCOc1nc(Nc2ccc(F)cc2)nc(N2CCN(c3ccc(OC)cc3)CC2)n1 | -0.152
13 | CN(C)C(=O)CCN1CCOCC1 | -0.281
14 | CCN(CC)S(=O)(=O)c1ccc(-c2nnc(SCc3nnc(-c4ccc(C)cc4)o3)o2)cc1 | -0.481
15 | COc1ccc(S(=O)(=O)NC(C)C(=O)Nc2cccc([N+](=O)[O-])c2)cc1 (centres undefined) | -0.197
16 | Cc1ccc(C)c(Nc2c([N+](=O)[O-])cc(C(=O)N3CC(=O)Nc4ccccc43)cc2[N+](=O)[O-])c1 | active: 4.62
17 | COC(=O)C1=C(N)Oc2cc(C)n(Cc3ccccc3)c(=O)c2C1c1ccccc1 (centres undefined) | -0.192
18 | COc1ccc(Cl)cc1NC(=O)CCN1CCN(C)CC1 | -0.0198
19 | Cc1ccc(-c2nc(NC(=O)c3nn(C)cc3[N+](=O)[O-])sc2C)cc1 | -0.0697
20 | CCC(C)(C)n1nnnc1C(c1ccc(C)cc1)N1CCN(Cc2cccnc2)CC1 (centres undefined) | 0.0158
21 | Cc1ccc(NCc2ccccc2OCc2ccccc2F)cc1 | -0.0589
22 | CCC(C)NS(=O)(=O)c1ccc(NC(=O)CCC2CCCCC2)cc1 (centres undefined) | -0.213
23 | COc1ccc(CCC(=O)N2CC(C)OC(C)C2)cc1 (centres undefined) | -0.365

Row | SMILES | z-score
24 | COc1ccc(/C=C/C(=O)NCCCc2ccccc2)cc1 | -0.208
25 | O=C(Oc1oc(-c2ccco2)nc1C=Nc1ccccc1)c1ccco1 | -0.618
26 | O=c1[nH]n2c(=O)c3c([nH]c2c1N=Nc1cccc(C(F)(F)F)c1)CCCC3 | -1.04
27 | CCOC(=O)C1CCCN(c2ncnc3c2[nH]c2cccc(OC)c23)C1 (centres undefined) | -0.427
28 | Cn1c(=O)c2c(-c3ccccc3F)c3c(nc2n(C)c1=O)-c1ccccc1C3O (centres undefined) | -0.644
29 | CCN(CC)C(=O)c1c(NC(=O)c2ccccc2)sc(C)c1C | 0.187
30 | Brc1ccc(-c2cn3c(n2)CCc2ccc4cccnc4c2-3)cc1 | 0.098
31 | O=C(Cn1nc(CNc2ccc(Cl)cc2)[n+]2c1CCCCC2)c1ccccc1 | -0.17
32 | COc1ccc(C(=O)c2sc3nc(-c4ccccc4)ccc3c2N)cc1OC | -0.757
33 | COC(=O)C(O)(CC(=O)Nc1ccc(Cl)cc1F)C(F)(F)F (centres undefined) | -0.45
34 | CN1CCN(S(=O)(=O)c2ccc(NC(=O)c3ccco3)cc2)CC1 | -0.12
35 | COCCNC(=S)N1CCN(C(=O)C(=O)Nc2ccc(C(=O)OC)cc2)CC1 | -0.352
36 | Cc1cccc(NC(=O)CSc2nnc(-c3cnccn3)n2Cc2ccco2)c1 | -0.341
37 | Cc1cccc(N(CC(O)CN(C)C)S(=O)(=O)c2ccccc2)c1 (centres undefined) | 0.0348
38 | Cc1c(-c2ccccc2)sc(Br)c1C(=O)N1CCOCC1 | -1.13
39 | O=S(=O)(c1ccc(OCC(O)CN2CCN(c3ccccc3)CC2)cc1)N1CCOCC1 (centres undefined) | 0.569
40 | N/C(=N\OC(=O)c1ccc2ccccc2c1)c1ccc(Br)cc1 | -0.416
41 | CC(=O)Nc1nnc(SCc2ccccc2F)s1 | 0.164
42 | COc1ccc(OC)c(C2C3=C(COC3=O)Nc3cc4c(cc32)OCO4)c1 (centres undefined) | -0.261
43 | CC(C)NC(=S)N/N=C/c1c[nH]c2ccccc12 | -0.251
44 | Clc1ccc(CSc2ncn(-c3ccccc3)n2)cc1 | -2.68
45 | CCCCOc1ccc(S(=O)(=O)Nc2ccc(NC(C)=O)cc2)cc1 | -0.437
46 | CN(C)S(=O)(=O)c1ccc(C(=O)Nc2ccccc2[N+](=O)[O-])cc1 | -0.419

Row | SMILES | z-score
47 | Clc1ccc(/C=N/c2c(-c3ccc(Cl)cc3)nc3n2CCS3)cc1 | 0.0627
48 | CC1CCCCN1C(=O)CSc1nc2ccsc2c(=O)n1Cc1ccccn1 (centres undefined) | -0.531
49 | Cc1ccc(C=Nc2ccccc2C#N)s1 | -0.272
50 | Cc1ccccc1Nc1c([N+](=O)[O-])ccc2c1=NC1(CCCCC1)N=2 | -0.185
51 | Cc1cc(C)c(C(=O)Nc2ccc(Br)c(C(F)(F)F)c2)c(C)c1 | -0.0864
52 | Cn1c(SCC(=O)Nc2cccc(Br)c2)nnc1-c1cc2ccccc2o1 | -0.0895
53 | CCOc1ccccc1N(CC(=O)Nc1ccc(S(=O)(=O)N2CCOCC2)cc1)S(=O)(=O)c1ccccc1 | -0.117
54 | CCCC(=O)NCCc1nc2ccccc2n1CCC | -0.347
55 | O=C(c1ccc(COc2c(F)c(F)cc(F)c2F)o1)N1CCN(c2ccccc2)CC1 | -0.0675
56 | Cc1nn(Cc2ccccc2)c(C)c1C(=O)NCCN1C(=O)S/C(=C\c2ccccc2)C1=O | -0.302
57 | Cc1cc(C)n2nc(NCc3cccc(Br)c3)nc2n1 | -0.295
58 | O=c1c2c3c(sc2ncn1Cc1ccc(F)cc1)CCC3 | -0.207
59 | CCc1nnc(NC(=O)c2cccc(S(=O)(=O)N3CCN(c4ccccc4)CC3)c2)s1 | 0.00976
60 | CCOc1ccc(C(=O)Nc2cccc([N+](=O)[O-])c2)cc1Br | -0.188
61 | Cc1onc(-c2c(F)cccc2Cl)c1C(=O)Nc1cccc2nsnc12 | 2.67
62 | Cc1sc2ncnc(-n3cnc4ccccc43)c2c1C | -0.181
63 | Cc1ccc(S(=O)(=O)Nc2cc(NC(=O)CN3CCOCC3)ccc2Cl)cc1 | -0.264
64 | O=S1(=O)N=C(N2CCN(Cc3ccc4c(c3)OCO4)CC2)c2ccccc21 | -0.43
65 | CC1CCN(CC(O)COc2cccc(F)c2)CC1 (centres undefined) | 0.03
66 | COC(=O)c1cn(NC(=O)c2cccc(F)c2)c(=O)c2ccccc12 | 0.69
67 | CC1(C)CC(=O)C(C=NCCN2CCN(CCc3ccccc3)CC2)=C(O)C1 | 0.0369
68 | COc1ccc(NC(=O)Nc2ccccc2OC)cc1 | 1.3
69 | CCn1c(-c2nn(C)c(C)c2Cl)n[nH]c1=S | -0.461
